We go through 172 sequences from publication PMC10668032.

The list shows a part of the results. At the low end of the ranking the order means little.

For this experiment, the target named is SIX1 homeodomain (reference allele) (UniProt Q15475). The experiment can be described thus: universal protein binding microarray. The conditions noted are these: Universal all-10-mer PBM (8x60K, AMADID 030236), 300 nM GST-tagged protein, Alexa Fluor 488 anti-GST; buffer, salt, pH and temperature not stated; high values mean tight binding; most listed sequences are background and not binding sites; double strand, one strand shown.
Regarding GTAGATGA, the binding signal is 0.123 E-score.

As for ATGTACTG, the binding signal is -0.105 E-score.

TGCGGAAA: the binding signal was -0.202 E-score.

On to GCTACTCC, for which the binding signal is -0.0984 E-score.

For AGAACTAA, the binding signal is -0.171 E-score.

With CTCGTCTA, the binding signal is -0.18 E-score.

On to AAGATCGT, for which the binding signal was found to be 0.265 E-score.

In the case of CATACATG, the binding signal amounted to 0.154 E-score.

Consider GTAGGAAC, for which the binding signal is -0.0257 E-score.

On to GTTCAGTA, for which the binding signal is -0.0555 E-score.

Turning to ACCGCTCT, the binding signal is -0.13 E-score.

CGATTCAA: the binding signal was -0.172 E-score.

As to ACTCCAGG, the binding signal came to 0.00525 E-score.

With GACTCGCC, the binding signal was -0.206 E-score.

Turning to ACGTATTC, the binding signal amounted to 0.234 E-score.

Take GGAGTACC: the binding signal amounted to 0.0311 E-score.

Take CGGTTGCA: the binding signal is -0.216 E-score.

For ATCTCCCA, the binding signal is 0.238 E-score.

For the sequence TAGGGACA, the binding signal came out at 0.0629 E-score.

Turning to ATGAGCAC, the binding signal was -0.0894 E-score.

With GCTTCCAA, the binding signal is -0.272 E-score.

AGTTTCTG: the binding signal was -0.125 E-score.

As for CATATATG, the binding signal worked out at 0.23 E-score.

As to ACCTGGCA, the binding signal was -0.0544 E-score.

With AGCTCAAA, the binding signal was found to be 0.0473 E-score.

For CCCTTTTC, the binding signal was -0.0589 E-score.

Turning to CCGCCGCA, the binding signal was -0.107 E-score.

As for GAGTGAAA, the binding signal is -0.0625 E-score.

As for ACTGTTGA, the binding signal was -0.08 E-score.

Turning to GCCCAGAC, the binding signal is -0.0733 E-score.

For the sequence CCGGCCCC, the binding signal was -0.0562 E-score.

As to AAGTCATG, the binding signal is -0.189 E-score.

CGATCTCA: the binding signal came out at 0.257 E-score.

As to CTGTACAA, the binding signal was -0.16 E-score.

Take ATGCCGCC: the binding signal is -0.101 E-score.

For the sequence CTGAGGTC, the binding signal was -0.27 E-score.

As for TAGCGAAA, the binding signal is -0.125 E-score.

In the case of ATTACGCC, the binding signal is -0.062 E-score.

Take AGACGCCA: the binding signal is -0.111 E-score.

As to GGCGGTTA, the binding signal amounted to 0.00737 E-score.

Turning to CTTGCATA, the binding signal was -0.119 E-score.

As for AATAACCT, the binding signal was -0.18 E-score.

As for ATGTACCC, the binding signal came out at 0.0151 E-score.

On to TGCCCGAA, for which the binding signal was -0.217 E-score.

Take GTAGCCAA: the binding signal is -0.172 E-score.

For the sequence CAAGATTC, the binding signal is 0.00957 E-score.

For the sequence CATCATAA, the binding signal was -0.0455 E-score.

With TGAATTCA, the binding signal is -0.0917 E-score.

For CATACGGG, the binding signal was -0.00773 E-score.

Regarding GTAACGAC, the binding signal is -0.108 E-score.

As for GCGAGATA, the binding signal was 0.335 E-score.

As for TCCATGCA, the binding signal was -0.0342 E-score.

As to AACCCGTT, the binding signal was -0.158 E-score.

For CGGCTCCC, the binding signal was -0.0545 E-score.

CTACCCGA: the binding signal turned out to be 0.0676 E-score.

For the sequence AACGGACA, the binding signal was -0.042 E-score.

With CATGTCAA, the binding signal was -0.287 E-score.

Consider AATCAAAT, for which the binding signal is -0.189 E-score.

Take AAAATATC: the binding signal worked out at 0.154 E-score.

Regarding CCGAATAC, the binding signal amounted to 0.248 E-score.

As to CGACGTGC, the binding signal is -0.118 E-score.

Regarding AACATTCA, the binding signal is -0.169 E-score.

With CGACCAAA, the binding signal was -0.0853 E-score.

On to CATTCTAC, for which the binding signal is -0.138 E-score.

In the case of GACAACAC, the binding signal was determined as 0.0383 E-score.

Turning to ATTCGGTC, the binding signal was -0.184 E-score.

As for AATCACCC, the binding signal was 0.0903 E-score.

With CGTGACTA, the binding signal was -0.0645 E-score.

Regarding AACCGATT, the binding signal is -0.0518 E-score.

For the sequence CAGGGCGA, the binding signal stood at 0.216 E-score.

In the case of CTGGGCCA, the binding signal is -0.187 E-score.

As for CCATGAGC, the binding signal is -0.00082 E-score.

In the case of CACTTTTC, the binding signal was -0.147 E-score.

GTGGGCTA: the binding signal was -0.143 E-score.

With GCACCCGA, the binding signal turned out to be 0.146 E-score.

In the case of GTGAACTA, the binding signal is -0.0175 E-score.

For the sequence GCTTAAGC, the binding signal is -0.206 E-score.

As for GGCGGCTA, the binding signal is 0.101 E-score.

With ACTGGTAT, the binding signal turned out to be 0.386 E-score.

Turning to CCGGTTTA, the binding signal is -0.0166 E-score.

In the case of ATATGAAC, the binding signal was 0.0317 E-score.

Regarding AGTGTAAC, the binding signal is -0.0601 E-score.

As to CTCATTGA, the binding signal is -0.124 E-score.

Take ACACTTGC: the binding signal was -0.172 E-score.

Take CAGAGTAG: the binding signal is -0.0349 E-score.

For the sequence GTTACCGA, the binding signal is -0.212 E-score.

For GAACGCCC, the binding signal was -0.261 E-score.

With AAGACATG, the binding signal is -0.116 E-score.

For AGAATGAT, the binding signal turned out to be 0.216 E-score.

Consider CTATTGTA, for which the binding signal came to 0.124 E-score.

Consider ATAAGCTC, for which the binding signal is -0.00516 E-score.

As to ATAGTACA, the binding signal was determined as 0.19 E-score.

In the case of AGACCTAT, the binding signal turned out to be 0.17 E-score.

Take TACGCTAA: the binding signal amounted to 0.0362 E-score.

In the case of GGCTTATA, the binding signal came to 0.121 E-score.

Regarding CCTACGAA, the binding signal was -0.055 E-score.

On to ACGACCTA, for which the binding signal is -0.119 E-score.

As for CGGCGTAC, the binding signal is -0.153 E-score.

Turning to GCAAATGA, the binding signal was -0.0339 E-score.

As for CGTGACCC, the binding signal was 0.0509 E-score.

As for AAGCTGCA, the binding signal was -0.122 E-score.

In the case of AATACCGG, the binding signal was found to be 0.273 E-score.

Turning to ATAGTCAC, the binding signal came out at 0.0709 E-score.

On to TCCCACAA, for which the binding signal stood at 0.0221 E-score.

Turning to CGGGACTC, the binding signal is -0.261 E-score.

Consider ACGCAGGA, for which the binding signal is -0.0076 E-score.

Regarding CCTGACAC, the binding signal is 0.352 E-score.

With GACGGCGC, the binding signal was -0.283 E-score.

Turning to AATTTCCC, the binding signal is -0.253 E-score.

Consider CATGAAAG, for which the binding signal came out at 0.157 E-score.

With ATTCGGCG, the binding signal was -0.06 E-score.

For CGTATACA, the binding signal came to 0.279 E-score.

In the case of TACAATCA, the binding signal was -0.0724 E-score.

On to CGATAGAG, for which the binding signal was -0.0205 E-score.

As for CGAAGAGC, the binding signal is -0.158 E-score.

Consider CGAACAAG, for which the binding signal is -0.193 E-score.

As to AATTTCGG, the binding signal is -0.156 E-score.

For ACGTCATA, the binding signal is -0.0417 E-score.

In the case of GAAGTATC, the binding signal amounted to 0.407 E-score.

Regarding CGTGCAGC, the binding signal was -0.209 E-score.

In the case of GCGGTCAA, the binding signal was -0.0653 E-score.

Regarding CACCTATG, the binding signal stood at 0.123 E-score.

Turning to AATTCACC, the binding signal was -0.183 E-score.

AGTAGCTG: the binding signal is -0.0543 E-score.

For the sequence GAATGCAC, the binding signal is -0.0186 E-score.

For the sequence AGAGCGAT, the binding signal amounted to 0.159 E-score.

For the sequence CGGCCACA, the binding signal was -0.233 E-score.

GAAGCCGA: the binding signal was found to be 0.0635 E-score.

For AGCAAGGA, the binding signal worked out at 0.0356 E-score.

Consider GTGTAGTA, for which the binding signal turned out to be 0.185 E-score.

For the sequence AAGGTATT, the binding signal is 0.248 E-score.

As to TATCATAA, the binding signal turned out to be 0.381 E-score.

As for AAAGCATC, the binding signal was -0.066 E-score.

As to AAACGCCA, the binding signal is -0.19 E-score.

For the sequence AATCCCAT, the binding signal was 0.19 E-score.

As to CAGTGGCG, the binding signal was -0.033 E-score.

As to CGGTAAGA, the binding signal is -0.0374 E-score.

For the sequence CTTTGCAA, the binding signal was -0.113 E-score.

Consider ATAACGGC, for which the binding signal stood at 0.0628 E-score.

As for CACCGAGC, the binding signal amounted to 0.115 E-score.

As to AGATAGCA, the binding signal turned out to be 0.119 E-score.

GCGAACCC: the binding signal worked out at 0.135 E-score.

ATGGAGGC: the binding signal was -0.0848 E-score.

As to ATCTCGGC, the binding signal is 0.164 E-score.

For the sequence TCGGGAAA, the binding signal is 0.0547 E-score.

In the case of CGGCAATA, the binding signal was -0.0449 E-score.

Turning to AAATTATA, the binding signal was 0.109 E-score.

For CATAAGGA, the binding signal was -0.0528 E-score.

As for GGATCCCA, the binding signal came out at 0.37 E-score.

Regarding TGTGCGAA, the binding signal is -0.224 E-score.

Take ATATCAGC: the binding signal worked out at 0.404 E-score.

With CGCTAAGA, the binding signal is -0.0957 E-score.

For the sequence AAAGTAAC, the binding signal is -0.294 E-score.

For ATATCATG, the binding signal was found to be 0.458 E-score.

Take AAATACAT: the binding signal was found to be 0.0567 E-score.

With CACGTGCC, the binding signal was -0.0148 E-score.

As for AGCCCGGA, the binding signal was determined as 0.0121 E-score.

As for AAGGATTA, the binding signal was determined as 0.159 E-score.

Take ATATCATC: the binding signal stood at 0.46 E-score.

Turning to AGGCATAC, the binding signal is -0.0178 E-score.

Turning to ACGCTGAG, the binding signal was -0.114 E-score.

In the case of TACACCAA, the binding signal amounted to 0.31 E-score.

Consider CCGAGAGC, for which the binding signal came to 0.0387 E-score.

Turning to GGGGGACA, the binding signal was -0.00818 E-score.

Consider CTGCCGTA, for which the binding signal is -0.136 E-score.

Consider AACAGGCA, for which the binding signal is -0.224 E-score.

As for GTGGTATA, the binding signal stood at 0.3 E-score.

As for TAATGCTA, the binding signal is -0.118 E-score.

For GAGTCTGC, the binding signal was -0.239 E-score.

As for CAGTCGTC, the binding signal was -0.222 E-score.

In the case of TTCGAAAA, the binding signal was -0.173 E-score.

With AACTTGGG, the binding signal was -0.243 E-score.
